# Measured values from publication PMC4336329 (PLoS ONE, 2015).
# In all, about 310,000 compounds went through this assay and about 2,200 (0.71%) showed an effect of 50% or more. Effects have a minus sign here. This is one part of the list. Where a SMILES comes first, the peptide text is derived from it. The star is where a group is joined. Boc = CC(C)(C)OC(=O)*
# Molecular target: human ether-à-go-go-related gene (hERG) potassium channel (human, UniProt Q12809)
# Assay: primary screen, population patch clamp on CHO cells stably expressing hERG
# Sequence of human ether-à-go-go-related gene (hERG) potassium channel (Q12809 whole entry, looked up): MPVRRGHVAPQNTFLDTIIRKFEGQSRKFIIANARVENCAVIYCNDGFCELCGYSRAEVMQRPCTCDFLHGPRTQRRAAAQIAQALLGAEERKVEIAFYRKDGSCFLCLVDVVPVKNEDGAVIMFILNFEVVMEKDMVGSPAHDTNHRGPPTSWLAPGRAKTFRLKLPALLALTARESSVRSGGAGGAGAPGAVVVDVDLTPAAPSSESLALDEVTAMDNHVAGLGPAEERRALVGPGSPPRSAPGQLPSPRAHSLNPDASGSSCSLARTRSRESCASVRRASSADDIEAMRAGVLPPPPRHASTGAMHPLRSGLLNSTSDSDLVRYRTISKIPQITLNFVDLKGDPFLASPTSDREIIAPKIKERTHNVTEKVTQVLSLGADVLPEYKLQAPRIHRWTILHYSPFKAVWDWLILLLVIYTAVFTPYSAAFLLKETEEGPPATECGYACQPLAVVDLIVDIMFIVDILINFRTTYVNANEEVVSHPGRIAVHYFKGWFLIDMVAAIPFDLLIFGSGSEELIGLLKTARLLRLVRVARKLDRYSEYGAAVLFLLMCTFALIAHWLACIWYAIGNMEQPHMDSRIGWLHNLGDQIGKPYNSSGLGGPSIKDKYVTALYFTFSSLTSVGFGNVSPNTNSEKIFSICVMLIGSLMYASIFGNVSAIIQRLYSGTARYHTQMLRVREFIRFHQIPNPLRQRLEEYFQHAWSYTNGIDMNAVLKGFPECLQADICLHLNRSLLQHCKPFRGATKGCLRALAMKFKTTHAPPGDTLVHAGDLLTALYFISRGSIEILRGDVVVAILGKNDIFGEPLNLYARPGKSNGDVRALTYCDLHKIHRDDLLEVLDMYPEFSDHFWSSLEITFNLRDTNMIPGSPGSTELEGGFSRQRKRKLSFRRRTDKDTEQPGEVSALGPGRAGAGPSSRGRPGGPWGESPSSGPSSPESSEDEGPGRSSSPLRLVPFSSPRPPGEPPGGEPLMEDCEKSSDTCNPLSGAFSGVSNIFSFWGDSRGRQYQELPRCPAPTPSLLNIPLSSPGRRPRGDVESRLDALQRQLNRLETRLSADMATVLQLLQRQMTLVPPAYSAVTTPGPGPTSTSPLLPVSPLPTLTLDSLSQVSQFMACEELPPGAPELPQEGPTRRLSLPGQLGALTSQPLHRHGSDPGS
row,SMILES,"hERG current change (%, negative = inhibition) at 1uM [%]"
1,CCCCn1c(CCNC(=O)CC)nc2ccccc21,0.197
2,C=CCn1c(P(C)(=O)O)nc2ccccc21,14.4
3,O=C(OCc1ccccc1)c1cccc(-c2nnn(Cc3ccccc3)n2)c1,9.9
4,Cc1cccc(C)c1NC(=O)CS(=O)CC(=O)NCC1OCCc2ccccc21 (stereo not shown),16.2
5,CCC(=O)c1ccc(OCC(=O)OCC(=O)N2CCc3ccccc3C2)cc1,5.84
6,Cc1cc(N2CCC(C(=O)NC3CCCCC3)CC2)nc(-c2ccccc2)n1,-5.09
7,CCOc1cc2c(cc1/C=C1/NC(=O)N(CC(=O)OC)C1=O)OCO2,12.5
8,COc1ccc(-c2oc(NC(=O)c3ccc(C)cc3)c(C#N)c2-c2ccc(OC)cc2)cc1,-4.07
9,Oc1cccc(/C=C/c2ccc3cccc(O)c3n2)c1,16.3
10,FC(F)(F)c1ccc(C2[C@H]3CN(CC4CCCCC4)[C@H](c4ccccc4)C34CC2(c2cccnc2)C4)cc1 (stereo partly shown),11.3
11,CCC(C)C(NC(=O)OC(C)(C)C)C(=O)NC(C(=O)NC(C)C(N)=O)C(C)C (stereo not drawn) (Boc-Ile-Val-Ala-NH2; configuration not given here),7.78
12,COC(=O)C1=C(C)N(C)C(=S)N(C)C1c1cccc(Br)c1 (stereo not shown),-8.59
13,CCCNc1nc2c(c(=O)n(C)c(=O)n2C)n1Cc1ccc(F)cc1,6.22
14,Cc1ncoc1C(=O)Nc1cccc(Cl)c1,1.6
15,CC(C)c1ccc(OCC(O)CNC(C)c2ccccc2)cc1.Cl (stereo not shown),-0.387
16,O=C(COC(=O)CNC(=O)c1ccccc1F)NCC(F)(F)F,6.66
17,N#CC1=C(N)Oc2n[nH]c(-c3cccs3)c2C1C1C=CCCC1 (stereo not shown),4.26
18,O=[N+]([O-])c1ccc(O)c(C=Nc2ccc3c(c2)OCCO3)c1,12.7
19,O=C(CC(=O)c1c(F)cccc1Cl)c1ccccc1O,17
20,COc1cc(C(=O)Oc2cc(C)cc(C)c2)cc(OC)c1OC,23
21,O=C(O)c1ccc(NC(=S)NC(=O)c2ccc(-c3ccccc3)cc2)cc1,14.8
22,CN(C)Cc1cc(CN(C)C)c(O)c(CCc2ccccc2)n1.Cl,7.81

row,SMILES,"hERG current change (%, negative = inhibition) at 1uM [%]"
1,Cc1cccc(N2CCN(C(=O)CSc3ccsc3[N+](=O)[O-])CC2C)c1 (stereo not shown),4.62
2,COC(=O)c1ccc2c(=O)n(Cc3ccc4c(c3)OCO4)c(SCC(=O)N3CCCC3)nc2c1,-10.9
3,COc1ccc(CNC(=O)C2CCC(=O)N(CCCN3CCCC3=O)C2)cc1 (stereo not shown),11.1
4,Cc1ccnc(NC(=O)Nc2ccc3c(c2)N(C)C(=O)CS3)c1,10.5
5,O=C(O)c1cc2ccccc2n1-c1ccccc1,8.47
6,CCC(NS(=O)(=O)c1ccc(C)cc1)C(=O)N1CCN(c2ccccn2)CC1 (stereo not shown),3.13
7,N#CC(C(=O)NC1CCCCC1)c1nc2ccccc2nc1N1CCN(c2ccccc2F)CC1 (stereo not shown),8.65
8,COc1cccc(C(=O)Nc2cc(=O)n(C)c(=O)n2C)c1,17.4
9,O=C(CC1C(=O)NCCN1C(=O)Nc1ccccc1)Nc1ccc(F)cc1 (stereo not shown),14.2
10,CCOc1ccc(-c2nonc2NC(=O)c2ccco2)cc1OCC,19.2
11,O=C(O)CCSc1nc2ccccc2c(=O)[nH]1,11.9
12,Cc1ccc(C(=O)Nc2ncc([N+](=O)[O-])s2)cc1,10.1
13,Cn1c(=O)oc2cc(S(=O)(=O)NCCN3CCN(c4ccccc4)CC3)ccc21,-0.148
14,COC(=O)c1ccc(S(=O)(=O)NCc2ccccc2)n1C,6.61
15,Cc1cc(OCC(=O)N2C[C@H]3C[C@@H](C2)c2cccc(=O)n2C3)c2c(C)c(C)c(=O)oc2c1,14.4
16,COc1cn(-c2ccccc2)nc1C(=O)OCC(=O)Nc1ccc(C)c(C)c1,12.1
17,Cc1c(N(C)C)nc2ccccc2c1N.O=C(O)C(=O)O,-8.8
18,Cc1nn(CCc2nn[nH]n2)c2nc(C(F)(F)F)cc(C(F)(F)F)c12,13.5
19,CC1(C)CC(=O)C2=C(C1)N(c1ccccc1)C(N)=C(C#N)C2c1ccccc1 (stereo not shown),6.52
20,CCN1C(=O)CC(C(=O)NC)SC1=Nc1cc(Cl)c(O)c(Cl)c1 (stereo not shown),14
21,COc1ccc(OC)c(S(=O)(=O)N2CCN(CC(O)COc3ccc(C#N)cc3)CC2)c1 (stereo not shown),-43.6
